# The supplement of paper PMC12645437, “Orthogonal IMiD-Degron Pairs Induce Selective Protein Degradation in Cells” (ACS Chemical Biology, 2025)
# The list shows a part of the results.
# B1: Q9UKT9 (peptide)
# chain: FNCSVCGHVFTQKGNLLRHIKL
# B2: Q9UKT9 (peptide)
# chain: FMCDQCGALFTQKGNLLRHIKL
# B3: Q9UKT9 (peptide)
# chain: FHCEVCGAPFTQKGNLLRHIKL
# B4: Q9UKT9 (peptide)
# chain: FRCEICGAAFTQKGNLLRHIKL
# B5: Q9UKT9 (peptide)
# chain: FCCDICGATFTQKGNLLRHIKL
# B6: Q9UKT9 (peptide)
# chain: LQCPICGFICTQKGNLLRHIKL
# B7: Q9UKT9 (peptide)
# chain: FFCSVCGHYFTQKGNLLRHIKL
# B8: Q9UKT9 (peptide)
# chain: FVCPICGAQFTQKGNLLRHIKL
# B9: Q9UKT9 (peptide)
# chain: FVCNQCGAMFTQKGNLLRHIKL
# B10: Q9UKT9 (peptide)
# chain: FDCEICGRHFTQKGNLLRHIKL
# B11: Q9UKT9 (peptide)
# chain: FLCEVCGAFFTQKGNLLRHIKL
# B12: Q9UKT9 (peptide)
# chain: FTCDVCGARFTQKGNLLRHIKL
# B13: Q9UKT9 (peptide)
# chain: FMCEICGHSFTQKGNLLRHIKL
# B14: Q9UKT9 (peptide)
# chain: FQCDQCGAWFTQKGNLLRHIKL
# B15: Q9UKT9 (peptide)
# chain: FRCNQCGHHFTQKGNLLRHIKL
# B16: Q9UKT9 (peptide)
# chain: FMCDQCGASFTQKGNLLRHIKL
# B17: Q9UKT9 (peptide)
# chain: FLCPVCGACFTQKGNLLRHIKL
# B18: Q9UKT9 (peptide)
# chain: FTCNQCGHEFTQKGNLLRHIKL
# B19: Q9UKT9 (peptide)
# chain: FRCPICGAGFTQKGNLLRHIKL
# B20: Q9UKT9 (peptide)
# chain: FYCDICGARFTQKGNLLRHIKL
# B21: Q9UKT9 (peptide)
# chain: FACPQCGALFTQKGNLLRHIKL
# B22: Q9UKT9 (peptide)
# chain: FCCNQCGACFTQKGNLLRHIKL
# B23: Q9UKT9 (peptide)
# chain: FDCPQCGAEFTQKGNLLRHIKL
# B24: Q9UKT9 (peptide)
# chain: FMCDQCGAPFTQKGNLLRHIKL
# B25: Q9UKT9 (peptide)
# chain: FCCNQCGRWFTQKGNLLRHIKL
# B26: Q9UKT9 (peptide)
# chain: FICPICGHNFTQKGNLLRHIKL
# B27: Q9UKT9 (peptide)
# chain: FVCDQCGAYFTQKGNLLRHIKL
# B28: Q9UKT9 (peptide)
# chain: FTCPICGAEFTQKGNLLRHIKL
# B29: Q9UKT9 (peptide)
# chain: FHCPICGAMFTQKGNLLRHIKL
# B30: Q9UKT9 (peptide)
# chain: FWCPICGASFTQKGNLLRHIKL
# B31: Q9UKT9 (peptide)
# chain: FMCNQCGRAFTQKGNLLRHIKL
# B32: Q9UKT9 (peptide)
# chain: FACPICGALFTQKGNLLRHIKL
# B33: Q9UKT9 (peptide)
# chain: FRCPICGHCFTQKGNLLRHIKL
# B34: Q9UKT9 (peptide)
# chain: FNCPICGRLFTQKGNLLRHIKL
# B35: Q9UKT9 (peptide)
# chain: LHCEICGFPCTQKGNLLRHIKL
# B36: Q9UKT9 (peptide)
# chain: FFCEICGHRFTQKGNLLRHIKL
# B37: Q9UKT9 (peptide)
# chain: FKCSVCGHTFTQKGNLLRHIKL
# B38: Q9UKT9 (peptide)
# chain: FHCDICGAVFTQKGNLLRHIKL
# B39: Q9UKT9 (peptide)
# chain: FHCDICGAWFTQKGNLLRHIKL
# B40: Q9UKT9 (peptide)
# chain: LYCEICGFYCTQKGNLLRHIKL
# B41: Q9UKT9 (peptide)
# chain: FQCEQCGASFTQKGNLLRHIKL
# B42: Q9UKT9 (peptide)
# chain: LACNQCGFWCTQKGNLLRHIKL
# B43: Q9UKT9 (peptide)
# chain: FLCEICGACFTQKGNLLRHIKL
# B44: Q9UKT9 (peptide)
# chain: FGCSVCGHNFTQKGNLLRHIKL
# B45: Q9UKT9 (peptide)
# chain: FFCNQCGAVFTQKGNLLRHIKL
# B46: Q9UKT9 (peptide)
# chain: FGCDICGANFTQKGNLLRHIKL
# B47: Q9UKT9 (peptide)
# chain: LKCNQCGFFCTQKGNLLRHIKL
# B48: Q9UKT9 (peptide)
# chain: FVCEICGRTFTQKGNLLRHIKL
# B49: Q9UKT9 (peptide)
# chain: FVCNQCGRDFTQKGNLLRHIKL
# B50: Q9UKT9 (peptide)
# chain: FACEICGATFTQKGNLLRHIKL
# Molecular target: no compound (DMSO)
# Assay: log2 fold change of degron read counts, EGFP-low vs EGFP+ sorted cells; higher = lower degron-EGFP level without compound (poor expression or instability)
# Settings: compound: DMSO control; 18 h
# 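Further: jurkat cells carrying a lentiviral library of mutant zinc finger degrons fused to EGFP plus mCherry, mCherry+ cells FACS sorted, degron abundance counted by next-generation sequencing.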
row,Sequence,log2 fold change of degron read counts
1,B1,0.299
2,B2,-1.12
3,B3,-1.24
4,B4,-2.27
5,B5,-1.95
6,B6,0.978
7,B7,0.823
8,B8,-0.902
9,B9,-0.311
10,B10,-1.4
11,B11,-0.944
12,B12,-1.64
13,B13,-2.7
14,B14,-0.484
15,B15,-0.139
16,B16,-1.46
17,B17,0.119
18,B18,-1.12
19,B19,0.379
20,B20,-0.687
21,B21,-0.456
22,B22,-0.511
23,B23,-1.91
24,B24,-1.14
25,B25,0.571

row,Sequence,log2 fold change of degron read counts
1,B26,-0.328
2,B27,-1.25
3,B28,-0.473
4,B29,-0.0657
5,B30,0.575
6,B31,-0.571
7,B32,0.423
8,B33,-0.274
9,B34,-0.331
10,B35,-0.147
11,B36,-1.02
12,B37,-0.703
13,B38,-1.2
14,B39,-0.256
15,B40,1.42
16,B41,-1.35
17,B42,1.87
18,B43,-1.96
19,B44,0.239
20,B45,0.184
21,B46,-1.81
22,B47,1.26
23,B48,-1.22
24,B49,-1.08
25,B50,-3.61
